Assay results from the supplement of paper PMC10681739.
± gives the standard deviation of the averaged measurements. The full ranking holds about 4,100 sequences; the median of “arbitrary fluorescence units” is about 780, and the highest 2% start at about 22,000. This is one part of the list.

The sequences below were run against T1, ETS1 (UniProt P14921) (assay: ETS1 binding intensity (PBM fluorescence), ETS1 alone (arbitrary fluorescence units); higher = stronger binding). Settings: ETS1 concentration 1 nM; RUNX1 concentration 0 nM.
T1 sequence: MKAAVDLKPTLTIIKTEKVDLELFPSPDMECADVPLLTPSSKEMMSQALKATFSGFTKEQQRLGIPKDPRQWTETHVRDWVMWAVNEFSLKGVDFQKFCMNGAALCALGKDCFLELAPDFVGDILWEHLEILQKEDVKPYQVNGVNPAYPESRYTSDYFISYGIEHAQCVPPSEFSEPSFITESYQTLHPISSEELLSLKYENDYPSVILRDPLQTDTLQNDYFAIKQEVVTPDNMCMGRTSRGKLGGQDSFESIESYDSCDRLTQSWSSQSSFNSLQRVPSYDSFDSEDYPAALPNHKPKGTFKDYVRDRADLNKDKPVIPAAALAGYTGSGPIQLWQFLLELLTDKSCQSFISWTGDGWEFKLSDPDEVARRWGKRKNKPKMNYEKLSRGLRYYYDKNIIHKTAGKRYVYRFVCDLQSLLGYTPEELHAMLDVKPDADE
Summary of the method: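 Double-stranded Agilent 4 × 180k arrays held 36-bp genomic probes whose RUNX1 partner site was mutated, and these were incubated with 1 nM full-length recombinant human ETS1 in the absence of RUNX1 under standard PBM protocols. Bound protein was labelled with anti-ETS1 antibody (Cell Signaling Technology 14069) plus an Alexa488-conjugated secondary and read on a GenePix 4400A, with four spots printed per sequence. Binding level is reported as raw spot fluorescence intensity summarised over replicate spots.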

**Q.** With TGAACTGTGAGCGGGGCACTCTGGGAGCGGAAAAGC as the sequence, how does the ETS1 binding intensity read?
**A.** 338

**Q.** Which ETS1 binding intensity does the source give for ATGTTCTTTTTGGTATCGCTTCCTGTGTCCTAGCAC here?
**A.** 3120

**Q.** AACCCGAAACCCCACGGACCAGCCGGAAGTCTTGAT was tested. Which ETS1 binding intensity did it give?
**A.** 1310

**Q.** How did the ETS1 binding intensity turn out when TAAAGAGGAAGCGGCAGCCGCGCCTGCGCCTACAGT was run?
**A.** 849

**Q.** CCCAGCAGAATCCGCAGCCTTCCTCCCCCACCCCTC was tested. Which ETS1 binding intensity did it give?
**A.** 391

**Q.** GTCGCCCCCACTGCAAGTATTTCCGCTTCCCTCCGC was tested. Which ETS1 binding intensity did it give?
**A.** 3490

**Q.** With GTCTCAACGTCAAGGAGGTGTTACTTCCTCTTTTAC as the sequence, how does the ETS1 binding intensity read?
**A.** 982

**Q.** With AGAAGGCGCCGGAAGTGGTCCCTCAGAGGCGGGGTG as the sequence, how does the ETS1 binding intensity read?
**A.** 11600

**Q.** With CGGTTCCGGCGCCTGAAGTTTTAGCTTCGGTGGCGG as the sequence, how does the ETS1 binding intensity read?
**A.** 3620

**Q.** For TTACCTTCCTGCTGCCACCAAAGCACCAAAGCACCA, which ETS1 binding intensity is on record?
**A.** 2700

**Q.** Which ETS1 binding intensity does the source give for AAACATCATAGGAAGTGGATTTTGGGGTGAGAGACA here?
**A.** 1170 ± 210

**Q.** For AGCGCCACCCCAGTGATGCAAGTCGGAAGTTGTAGT, which ETS1 binding intensity is on record?
**A.** 387

**Q.** How did the ETS1 binding intensity turn out when GAGGGAAGTCCTCGGGCGTCTCCTAGTGGCGGCGGG was run?
**A.** 358

**Q.** With GAAGCTCTTGTAGTTCCTGGCGGCATCCTGTCCCTC as the sequence, how does the ETS1 binding intensity read?
**A.** 955 ± 11

**Q.** For TAAGGCAAGCACCTCCTCTCAAGACCCTTTCCGGCC, which ETS1 binding intensity is on record?
**A.** 602

**Q.** How did the ETS1 binding intensity turn out when CCTTGTTCACATCCTTGCACTCTGAGGGGACGGGAG was run?
**A.** 1120

**Q.** With CAGGTCCCCTCACAAGACTGAGATTTCCGCTCTGAT as the sequence, how does the ETS1 binding intensity read?
**A.** 1510

**Q.** With TGGGGTTTCCTGGGGAGAAACTTAGCCCTACCTCAC as the sequence, how does the ETS1 binding intensity read?
**A.** 3060

**Q.** How did the ETS1 binding intensity turn out when CCGCTGCAGCTGCGCGCTACGTCACTACGTCCGGCG was run?
**A.** 402

**Q.** GTGCCTCACCGCTTCCGGCGCTGCGCGATGACGTCA was tested. Which ETS1 binding intensity did it give?
**A.** 15700

**Q.** For CTCCCGGGCCGAATCCGCGCGTTTCCGGCGCGCTCC, which ETS1 binding intensity is on record?
**A.** 4360

**Q.** How did the ETS1 binding intensity turn out when AGTGGATTAGTCGTTGTTGCCAGAGGATGTGAGTTG was run?
**A.** 425

**Q.** CTGAGGAAATTGGCTCCACGATAAAGTGCTTTGGCC was tested. Which ETS1 binding intensity did it give?
**A.** 517

**Q.** How did the ETS1 binding intensity turn out when GAGGGGTGGGCCCCAGGCGCCGGACGTGACGTAAGC was run?
**A.** 541

**Q.** TCAAGAAAACAGGAAACTCTCAAATCCAAGTTCTGA was tested. Which ETS1 binding intensity did it give?
**A.** 3280

**Q.** How did the ETS1 binding intensity turn out when AACATTACGGAAGTTTCTCTACCCATGAGGTGTCTC was run?
**A.** 1250

**Q.** How did the ETS1 binding intensity turn out when TTGCTCGGCTTCCTGGAGCTGGGGTCCGTGTGGGCT was run?
**A.** 1420

**Q.** With CTAGGGAGAGGATGTGAGTTTGTCTCTGGGGGTGGT as the sequence, how does the ETS1 binding intensity read?
**A.** 725

**Q.** For ACAGGCAGCTTCGGCCGCCCGGCTTCCTCTCCCGCC, which ETS1 binding intensity is on record?
**A.** 382

**Q.** With CCAGTACCCCACTTCCTGACCAAACCCCAAAGGTCA as the sequence, how does the ETS1 binding intensity read?
**A.** 6550

**Q.** With CCCTTCCTGCCCCCATGGCTCCCCTGACGTTTTTCG as the sequence, how does the ETS1 binding intensity read?
**A.** 6690

**Q.** How did the ETS1 binding intensity turn out when GGCATCCCCTTACGGCCATCACTTCCTATGCCCTCA was run?
**A.** 1460

**Q.** Which ETS1 binding intensity does the source give for GCTGTAGGCGGTGCAGGAGGGATCCGGAAGAGACGA here?
**A.** 425

**Q.** TGAAGGGTGCTTGCCGCCTCCCCTTCCTTCCCAGTC was tested. Which ETS1 binding intensity did it give?
**A.** 299

**Q.** With CCCCGGCAGAAACAGCACCCCACTTCCCATAGCCAC as the sequence, how does the ETS1 binding intensity read?
**A.** 508

**Q.** Which ETS1 binding intensity does the source give for TAATGGGGTGACATCAGCAAGGCCAAACAGGAAGCT here?
**A.** 763

**Q.** CCCTGGACGGGAAGCGGCGGCCAGATCCGCTAGCCC was tested. Which ETS1 binding intensity did it give?
**A.** 1210

**Q.** With GGCAACCCAAGGAAGTATCTCTGAAACTACACAACA as the sequence, how does the ETS1 binding intensity read?
**A.** 556

**Q.** For AAGCACCTCATCGGCAGCTCATGCACTTCCGGCGCA, which ETS1 binding intensity is on record?
**A.** 5760

**Q.** Which ETS1 binding intensity does the source give for CTGGGGTTGGGCTGTGTAGGTGCGGATTTCCTGGCT here?
**A.** 495

**Q.** How did the ETS1 binding intensity turn out when CAGGCCCTAGTCCACACCCTTCCTGGGGAAGAGATC was run?
**A.** 337

**Q.** For CAACAAGAGGAAATCAGAAACACTGAAGCTACAGCT, which ETS1 binding intensity is on record?
**A.** 936

**Q.** How did the ETS1 binding intensity turn out when CATTGTAGGCGCTGTAGTCCGGCCGGAACCTGTTTG was run?
**A.** 451

**Q.** For CCTGCAGCTGCAGCGGCACGCGCCGGAAGCCGGGCT, which ETS1 binding intensity is on record?
**A.** 859

**Q.** Which ETS1 binding intensity does the source give for CACCCTGGCCCCTCAGCCCCAGGAAAACATTCCTCA here?
**A.** 408

**Q.** Which ETS1 binding intensity does the source give for CCCTACACCCCACGATCCCCCGCGCCGTTCCGGAGG here?
**A.** 372

**Q.** For GTGGCTGTCGTTGAACTGACTCTCGGGTTTCCGCTC, which ETS1 binding intensity is on record?
**A.** 606

**Q.** Which ETS1 binding intensity does the source give for GCTTGTCTTCCGGTTTCGTCGCCGCCGTAGGCGCAC here?
**A.** 16700

**Q.** AATGAGCCCCAGAACCCTTTTCCTTCCGGCCTGTGC was tested. Which ETS1 binding intensity did it give?
**A.** 1520

**Q.** For AACCCCACTTCGGTGAGGCGGAAGCCTAGTGCCGCC, which ETS1 binding intensity is on record?
**A.** 405

**Q.** GAGAGAGTTCCGCGTAGGGGTCGCCGCGAGTCGCAA was tested. Which ETS1 binding intensity did it give?
**A.** 460

**Q.** Which ETS1 binding intensity does the source give for AAAGGGCCTGTGATAACAAAGCAATATCCTGTTGAA here?
**A.** 1350

**Q.** How did the ETS1 binding intensity turn out when CCAGGGCCGGAAGTGCTGGTGGTGCTTTCCATCATG was run?
**A.** 14500

**Q.** For AACACCACTTCCTACTGTGAAATCACACTGTATTTG, which ETS1 binding intensity is on record?
**A.** 4920

**Q.** With AGGCTTCCTGTTTTATCTCGTGTGTCTGGTGCACCA as the sequence, how does the ETS1 binding intensity read?
**A.** 17300

**Q.** TGTGACAACCCCAGCCCCAAAACAAAGAGGAAACAC was tested. Which ETS1 binding intensity did it give?
**A.** 470

**Q.** Which ETS1 binding intensity does the source give for GCACTCGGATGTTGGCCGTAGTTGGGGTTATAGTTG here?
**A.** 615

**Q.** CTAGGAAGTGTCTGTAGGCGCAGCTGAGGGTCCGGG was tested. Which ETS1 binding intensity did it give?
**A.** 379

**Q.** Which ETS1 binding intensity does the source give for TGATTGCGATTTCGGTCGCTCTCCCGTGTTTCCCGG here?
**A.** 311

**Q.** For CTGCAGATGCATTTCCTTTTTGTGATAGCAAGCGTG, which ETS1 binding intensity is on record?
**A.** 3390

**Q.** How did the ETS1 binding intensity turn out when CCCTCCGCGCCCAGCCCTGCCACTCTCGGAAATGGG was run?
**A.** 420

**Q.** Which ETS1 binding intensity does the source give for TCTGTCACCTCATCCAAGTGTATTTTCCTGACAGAG here?
**A.** 443

**Q.** For TTGTACTCTGGGGTTTCATTTCCTGCCCGTAAATGC, which ETS1 binding intensity is on record?
**A.** 6450

**Q.** With ACGCAAACTACACCAGCCACGGACAGGCAGGAAGAG as the sequence, how does the ETS1 binding intensity read?
**A.** 479

**Q.** How did the ETS1 binding intensity turn out when CTCATGGGAAATGTAGTTTCTAAATCGCGGGCGCCC was run?
**A.** 363

**Q.** Which ETS1 binding intensity does the source give for CAGGCAGATCAGACAACAGAAGCGGAAGAGGCGGGG here?
**A.** 834

**Q.** With GCCACCTTACGACAGCTGTACAGAGCTTCCTTTAGC as the sequence, how does the ETS1 binding intensity read?
**A.** 390

**Q.** With TTTCTGATTGTAGTTTCAAATTATTTCCTGTGTTGG as the sequence, how does the ETS1 binding intensity read?
**A.** 1770

**Q.** For GATTAAGAGGAAGTGTGTGTGATTATTAACGCTGGA, which ETS1 binding intensity is on record?
**A.** 1580

**Q.** For GGCGGGGCATCCGTGTCCTTACGGTGCTGGGCAGCA, which ETS1 binding intensity is on record?
**A.** 1020

**Q.** TGGGCAAGATATCCTGGAAGTGCTTAAAAAAAATTA was tested. Which ETS1 binding intensity did it give?
**A.** 1020

**Q.** Which ETS1 binding intensity does the source give for GACATCTTCCGGTTGCTACAGGTTACGGCGGCTGCT here?
**A.** 12800

**Q.** For ACAAGAGGAAGTGAGTCTACCCATGATGCGCTCACA, which ETS1 binding intensity is on record?
**A.** 2560

**Q.** CTGCCAGGAAGGGTTCTGGTTTAAGGTCTCCTCTTA was tested. Which ETS1 binding intensity did it give?
**A.** 424

**Q.** How did the ETS1 binding intensity turn out when GGGGCACCAGACAAACCATGCCCTTTGTCTTCCTGC was run?
**A.** 381

**Q.** For GGATTCCGGTTAGCACGTCGCGTTCTGCCGTAGCAG, which ETS1 binding intensity is on record?
**A.** 3440

**Q.** With CGTTATTTCCGGGGCTGGGTTAACGCAGCGGGTCCG as the sequence, how does the ETS1 binding intensity read?
**A.** 14500

**Q.** Which ETS1 binding intensity does the source give for TTATGCCTCAGGATGAACGAACCCCAAACACCCAGG here?
**A.** 322

**Q.** CAGCCGTCATCATGGTGAAGGAGCAGTTCCGGGAGA was tested. Which ETS1 binding intensity did it give?
**A.** 492

**Q.** How did the ETS1 binding intensity turn out when GGCGCCTCTTTCCGCCCCCGCTCACAATCGAGCGCA was run?
**A.** 1840
